This is an account of results in ChEMBL document CHEMBL4888484, “Replenishing the malaria drug discovery pipeline: Screening and hit evaluation of the MMV Hit Generation Library 1 (HGL1) against asexual blood stage Plasmodium falciparum ,using a nano luciferase reporter read-out” (2022).

About 540 (0.36%) of roughly 150,000 compounds showed an effect of 50% or more. This is one part of the list.

For this assay, the system named is Plasmodium falciparum. As to the kind of experiment: Primary screen in NF54 nanoGlo assay, in single point, at 2uM, 72h; a lower Z score goes with more inhibition. The following applies: timepoint 72 hour. The format is functional, Erythrocyte.
Consider `CC(C)CN(CC(=O)O)Cc1cccc(O)c1Cl`, for which the “% Inhibition” value is -14% and the Z score is 1.78.
The matching figures for `O=C(NCCN1CC[C@@H](O)C1)c1cc(F)cc(Br)c1F`: 9% and -1.03.
On to `Cn1cc(C(=O)Oc2ccc([C@H]3CCOC3)cc2)cn1`, for which the “% Inhibition” value is -1% and the Z score came to 0.16.
Consider `COc1ccccc1N1CCN(C(=O)c2cc3n(n2)CCN(Cc2ccccc2C(F)(F)F)C3=O)CC1`, for which the “% Inhibition” value is -7% and the Z score stood at 0.65.
As to `C[C@@H](CCCO)NC(=O)c1cnsn1`, the “% Inhibition” value is -2% and the Z score is 0.39.
The matching figures for `CCN1C(=O)c2ccccc2N2C(=O)CC[C@@]12C(=O)Nc1nccs1`: 8% and -0.95.
The matching figures for `O=c1c(NCC2(c3ccncc3)CCCCC2)nccn1C1CC1`: -4% and 0.5.
Regarding `Cc1cnc(CCNC(=O)C2CCOCC2)n1C1CC1`, the “% Inhibition” value is reported as -10% and the Z score is recorded as 1.5.
For `COc1ccc(CCNC(=O)C(=O)N2CCCC2)cc1` the same measures were -14% and 2.14.
For the compound `Cc1ccc2c(c1)C(C)(C)[C@]1(C)NC(=O)CCN21`, the “% Inhibition” value was found to be 0% and the Z score is on record as 0.03.
The matching figures for `CC[C@H](C)NC(=O)C(=O)Nc1ccc(Cl)c(Cl)c1`: -2% and 0.23.
For `Cc1oc(-c2ccc(C(=O)NCCC(C)C)cc2)nc1CN1CCc2ccccc21` the same measures were -1% and 0.08.
For `O=C(CCCc1ccccc1)NOCc1nnc(-c2ccccc2)o1` the same measures were 1% and -0.18.
`CC(C)n1cc2c(n1)[C@@H](NS(=O)(=O)c1cccnc1)CCC2`: the “% Inhibition” value is reported as -10% and the Z score worked out at 1.26.
The matching figures for `C[C@H](CO)N(C)S(=O)(=O)c1cccc(N(C)C)c1`: -5% and 0.67.
`C=CC1CCN(C(=O)NO[C@@H]2CCCCO2)CC1`: the “% Inhibition” value is reported as -5% and the Z score came to 0.72.
For `Cc1ccc(-c2csc(-c3cccn3CC(=O)N3CCCCCC3)n2)cc1` the same measures were -7% and 0.97.
For `Cc1cc(C(=O)N2CC[C@@](O)(c3ccccc3)C2)no1` the same measures were -15% and 1.97.
For `COc1cc(-c2noc(C3CC3)n2)ccc1OCc1ccc(C)cc1` the same measures were -12% and 1.17.
For the compound `C#CCN1CCCCC1C(=O)N(C)CC1OCCc2ccccc21` (stereo not given), the “% Inhibition” value is 2% and the Z score is on record as -0.22.
The matching figures for `COc1ccccc1N1CCN(C(=O)C[C@@H]2O[C@H](CNC(=O)c3cccc(F)c3)[C@@H](O)[C@H]2O)CC1`: 24% and -2.74.
For `Cc1ccccc1CNC(=O)C[C@H]1CCN(S(C)(=O)=O)C1` the same measures were -6% and 0.95.
Consider `Cc1ccc(CNCc2cccs2)s1`, for which the “% Inhibition” value is -12% and the Z score is on record as 1.39.
The matching figures for `C1CN(Cc2nnnn2C2CC2)CCN(Cc2nnnn2C2CC2)C1`: -8% and 1.19.
The matching figures for `C[C@H](NC(=O)NCc1c(C2CC2)cnn1C)c1ncc(Br)cn1`: 3% and -0.5.
The matching figures for `COc1ccccc1NC(=O)N1CCCCC[C@H]1c1ccc(C)s1`: 3% and -0.49.
In the case of `CC(C)Cn1c(=O)c2sccc2n(CC(=O)N2CCCC[C@@H]2C)c1=O`, the “% Inhibition” value is given as -13% and the Z score is 1.7.
The matching figures for `Cn1cc(C(=O)Nc2nc3ccccc3n2CC2CC2)c(C2CC2)n1`: 0% and 0.04.
The matching figures for `Cc1c(C(=O)N2CCCCC2)c(S(=O)(=O)N2CCN(c3ccc(Cl)cc3)CC2)c(C)n1C`: -14% and 2.7.
For `Cc1nnc(CN(C)C(=O)Nc2ccn(CCN3CCOCC3)n2)s1` the same measures were 0% and 0.08.
As to `CCc1nnc(Cn2cc([C@H](O)c3ccccc3)cn2)o1`, the “% Inhibition” value is reported as -15% and the Z score was 1.67.
For `CC1CC(NC(=O)N(C)CC(C)(C)O)C1` (stereo not given) the same measures were -17% and 1.7.
The matching figures for `Cc1ncsc1CN1CCCC(C(C)O)C1` (stereo not given): 5% and -0.68.
The matching figures for `Cc1nc2cc(NC(=O)C3CC4C=CC3C4)ccc2o1` (stereo not given): -15% and 2.12.
As for `NC(=O)c1ccc(NC(=O)CN2C(=O)NC3(CCCCCCC3)C2=O)cc1`, the “% Inhibition” value is on record as -3% and the Z score came to 0.42.
Turning to `COc1ccc([C@H]2C(=O)N(C3CCCCCC3)CC(=O)N2Cc2ccc3c(c2)OCO3)cc1`, the “% Inhibition” value is on record as -2% and the Z score worked out at 0.39.
The matching figures for `CCC1[C@@H](C)C(Nc2ccccc2)c2ccccc2N1C(=O)c1ccc(C(C)(C)C)cc1` (stereo not given in full): 20% and -2.38.
`CC1(C)CC(NC(=O)C2CC(C(c3ccccc3)c3ccccc3)=NO2)CCO1` (stereo not given): the “% Inhibition” value was -13% and the Z score worked out at 1.73.
The matching figures for `CCc1nnc(N2CCN(C)[C@@]3(CCNC(=O)CC3)C2)s1`: -13% and 1.43.
For `CCCc1cc(C(=O)N2CCC([C@]3(CCc4ccccc4)NC(=O)N(CCN(C)C)C3=O)CC2)no1` the same measures were -9% and 1.8.
For `CCc1c(C)nc2nc(-c3ccco3)nn2c1Nc1ccc(Cl)cc1` the same measures were -4% and 0.55.
With `CC(=O)N1CCN(C(=O)CN2C[C@@H](c3ccccc3Cl)OCC2(C)C)CC1`, the “% Inhibition” value is reported as -7% and the Z score is reported as 1.34.
As for `O=C(NC[C@@H]1COc2ccccc2C1)N1CCCC1`, the “% Inhibition” value is on record as -11% and the Z score amounted to 1.9.
For `CC(=O)NC1(C(=O)N2CCN(c3ccncc3Cl)CC2)CCCCC1` the same measures were -4% and 0.42.
For `O=C(CN1C(=O)[C@@H]2CCCN2C(=O)c2ccccc21)NCC1CCCO1` (stereo not given in full) the same measures were -8% and 0.91.
The matching figures for `CC(C)Cn1ccc2c(NC(=O)c3nn(C)c(=O)c4ccccc34)cccc21`: -8% and 1.01.
For `CCN(CC)c1nc(C)nc2c1sc(=S)n2-c1ccccc1`, the “% Inhibition” value is -8% and the Z score is reported as 1.09.
For `CC(C)(CN)c1nc(Cn2cnc3ccccc32)no1` the same measures were -13% and 1.86.
As to `CCn1c(-c2cc(NC(=O)CCc3ccccc3)[nH]n2)c(C)c2ccccc21`, the “% Inhibition” value is -1% and the Z score is on record as 0.07.
Consider `COC(=O)C[C@@H](C(=O)OC)c1ccno1`, for which the “% Inhibition” value is reported as -2% and the Z score was 0.36.
With `Cn1nccc1S(=O)(=O)NCC(F)F`, the “% Inhibition” value was -5% and the Z score amounted to 0.64.
The matching figures for `CN1C(=O)C(C)(C)c2cc(S(=O)(=O)N3CCC(C(=O)N4CCCCCC4)CC3)ccc21`: -7% and 1.35.
Turning to `Cc1c(Cl)c(-c2nc(C(C)(C)C3=CCCCC3)no2)nn1C`, the “% Inhibition” value was 0% and the Z score was -0.08.
For `CCCS(=O)(=O)[C@@H](C)C(=O)Nc1cccc(-c2nccc(C)n2)c1` the same measures were -3% and 0.46.
For `Cc1nnc(-c2ccccc2-c2cc(F)cc3c2O[C@@H](CN)C3)s1` the same measures were -11% and 1.1.
The matching figures for `CCC1(O)CCC(NC(=O)N2CCc3ccccc3C(C)(C)C2)CC1` (stereo not given): 10% and -1.24.
With `CC(C)[C@H](CCN(C)C(=O)c1cccc2c1OCC2)NC(=O)OC(C)(C)C`, the “% Inhibition” value is given as -7% and the Z score came out at 1.05.
`Cc1ccc(CN2CCCN(S(=O)(=O)N3CCOCC3)CC2)s1`: the “% Inhibition” value is -9% and the Z score is 1.76.
The matching figures for `COc1cc(-c2noc(-c3ccccc3)n2)ccc1OCC(=O)NC1CCCCC1`: -9% and 1.68.
The matching figures for `Cc1ccccc1C1CC(C)N(CC(=O)NCc2ccccn2)C1` (stereo not given): 4% and -0.53.
For `Cc1cc(C)c(Cn2cncn2)cc1CN1CCN2C(=O)CNC(=O)[C@@H]2C1` the same measures were 0% and 0.04.
Regarding `Cc1cc(COc2nc(C)c(C#N)cc2Br)no1`, the “% Inhibition” value is on record as -3% and the Z score was 0.52.
On to `O=C1N[C@@H](c2cncs2)Nc2ncccc21`, for which the “% Inhibition” value is -7% and the Z score is reported as 0.89.
For `O=C(NCCc1noc(C2CCC2)n1)[C@H]1CC12CCCCC2` the same measures were -9% and 1.88.
For `Cc1nc2ccc(C(=O)N3CCC[C@H](OC(C)C)C3)cc2n1C` the same measures were 0% and 0.06.
The matching figures for `C[C@H](NC(=O)N1CCN(S(=O)(=O)c2ccccc2Cl)CC1)C1CC1`: -4% and 0.44.
As for `COC(=O)N1CCC(CNC(=O)c2cc(C)cs2)CC1`, the “% Inhibition” value is -6% and the Z score was 0.92.
The matching figures for `CCS(=O)(=O)N1C[C@@H]2CN(Cc3cnn(C(C)C)c3)C[C@]2(c2nc(C)no2)C1`: -5% and 0.81.
The matching figures for `Cc1nc2ccccc2nc1N1CCN(C2CC2)CC1`: -11% and 1.44.
Consider `O=C(Nc1nc(-c2ccccn2)cs1)[C@@H]1COc2ccccc2O1`, for which the “% Inhibition” value was -5% and the Z score was found to be 0.44.
For `CCN(C(=O)c1ccc(-c2cc(C)c(C)cc2C)cc1)[C@H]1COC[C@@H]1O` the same measures were -5% and 1.04.
The matching figures for `O=C(NCc1cccnc1-c1ccco1)c1ccccc1C(=O)c1ccc(F)cc1`: -9% and 1.79.
For `CN1CCN(c2ccc(S(=O)(=O)N3CCCCC3)cc2N)CC1`, the “% Inhibition” value is recorded as 31% and the Z score is recorded as -3.51.
For `CCn1nc(Cc2ccc(OC)c(OC)c2)nc1-c1ccn2nnnc2c1`, the “% Inhibition” value was 7% and the Z score was -1.16.
For the compound `C[C@H](NC(=O)CCc1ccncc1)c1ccccc1N(C)C`, the “% Inhibition” value is listed as -11% and the Z score amounted to 1.73.
With `Cc1c[nH]c(CN(C)[C@H]2CN(C(=O)c3ccc(Cl)c(F)c3)C[C@@H]2O)n1`, the “% Inhibition” value is -21% and the Z score was 1.82.
For `Cn1c(N2CCC[C@H](C(=O)NCc3cccs3)C2)cc(=O)n(C)c1=O` the same measures were -3% and 0.52.
`CCC[C@H]1NC(=O)[C@@H](c2ccc(O)cc2)NC1=O`: the “% Inhibition” value is listed as -15% and the Z score amounted to 1.53.
For `CC[C@H](C)N1C(=O)C(=O)N(C2CCCCC2)C1=O`, the “% Inhibition” value is -8% and the Z score is 1.08.
For `Cc1noc(C)c1CN1C[C@H]2CC[C@@H](C1)N(C(=O)c1cc(C(C)C)oc1C)C2` the same measures were 2% and -0.35.
For `COc1cc([C@H]2C(=O)N(C3CCCC3)CC(=O)N2C2CCCCCCC2)ccc1OC(C)C` the same measures were -8% and 1.25.
For `CCN(CC)[C@@H](CN=C(NC)NC)c1ccsc1` the same measures were -3% and 0.3.
For the compound `CCc1ncc(CN2CCC[C@H](NS(=O)(=O)c3ccccc3)CC2)cn1`, the “% Inhibition” value is given as -7% and the Z score is on record as 1.12.
`CCCn1ncnc1-c1cccc(C(=O)NCc2nnn[nH]2)c1`: the “% Inhibition” value is given as 0% and the Z score amounted to 0.
The matching figures for `O=C1c2ccccc2C(=O)N1CCN1CCN(S(=O)(=O)c2ccccc2)CC1`: -10% and 1.62.

What is called % Inhibition is the change of the read-out against control, counted positive when it falls.
